Reference: US5811391A, “Cyclic CS-1 peptidomimetics, compositions and methods of using same” (Cytel Corporation, priority 1995, dated 1998)
Not every detail of the peptide structures is certain; ends, links or a residue may be inferred. Positions of bridges follow the written chain, without caps; N, C: chain ends. Non-standard residues stand in square brackets, D forms with d. Residues, ends and D or L forms follow the SMILES beside them. No end group written: not given here. ξ: configuration not given here. *: point of attachment. Hydrocinnamoyl = O=C(CCc1ccccc1)*; NMeF = CN[C@@H](Cc1ccccc1)C(=O)O; Cha = N[C@@H](CC1CCCCC1)C(=O)O; dPen = CC(C)(S)[C@@H](N)C(=O)O; Thr(3ξ) = CC(O)[C@H](N)C(=O)O; Pen = CC(C)(S)[C@H](N)C(=O)O; PhAc = O=C(Cc1ccccc1)*; Bz = O=C(c1ccccc1)*; OPr = CCCO*; X1 = CCCCO*

system: contact hypersensitivity; assay: not given; conditions: Ferguson et al. 1991; cited from earlier work

Row | Compound | recruitment of T lymphocytes to skin inflammatory sites
1 | DELPQLVTLPHPNLHGPEILDVPST [CS-1 peptide] | partially inhibited

target: VLA-4 (Homo sapiens, UniProt P05556+P13612); assay: In vitro binding assay: 51Cr-labeled Jurkat cells to solid phase-bound CS-1 peptide (SEQ ID NO:5); type: cell-based; set-up: inflammatory cells that contain the VLA-4 receptor [Jurkat cells; host or cells: Jurkat cells (human T lymphoblastic line); conditions: not given
Experimental: Binding inhibition is measured here as a concentration of peptide that inhibits one-half the binding between a standard number of Jurkat cells and a standard amount of CS-1 peptide bound to the surface of a microtiter plate well. Those concentrations are conveniently expressed as IC50 values, smaller numbers indicating a lower concentration required to inhibit 50 percent binding and therefore greater potency. Further specifics of this assay are provided hereinafter.
Jurkat cells (ATCC TIB 152), a human T lymphoblastic line, labeled with ^51 chromium were used to assay in vitro binding inhibition provided by various peptides discussed herein.
The plates were prepared as follows: The 25-mer CS-1 peptide (SEQ ID NO:5) dissolved at 0.5-1 μg/ml in a buffer of 0.1M NaHCO3 at pH 9.5 that also contained 10 μg/ml of bovine serum albumin (BSA) or a conjugate of the CS-1 peptide linked to ovalbumin (CS-1-OVA) dissolved at 1-2.5 μg/ml in the same buffer was used as the substrate. Each well of the microtiter plates was coated with 50 μl of substrate or buffer alone for controls. The wells were permitted to dry out completely and were then rinsed twice with PBS at pH 7.4. Non-specific binding sites of each well were then blocked using 200 μl per well of RPMI/1 percent BSA for two hours at room temperature. Both solid phase-affixed substrates provided similar results.
Jurkat cells (3-5×10^6 cells) were placed into a 15 ml FALCON™ round-bottom tube with a cap. The tube was centrifuged, and the extra medium was then removed.
Two hundred microliters of a ^51 Cr labeling solution were added to the centrifuged cells and maintained in contact with the cells for 90-120 minutes in a warm room. This procedure typically provides about 50,000-100,000 cpm/well with about 80-100 percent cell viability. Longer contact times provide a greater amount of labeling but lower cell viability.
The labeled cells were washed with (i) complete medium, (ii) 1mM EDTA/PBS and then (iii) RPM1/1 percent BSA free of serum components. The cells were centrifuged after each washing. The cells were finally resuspended in serum-free RPMI/1 percent BSA at a concentration of 1×10^6 viable cells/ml, which provides a concentration that is diluted by one-half in the assay.
Cyclic inhibitor peptides were prepared as stock solutions at 20 mg/ml in DMSO in 1.5 ml cryogenic screwcap vials, and were stored at -70° C. Using FLOW™ round-bottom or V-bottom microtiter plates, the inhibitor peptides were prepared at twice the assay concentration in RPMI/1 percent BSA at 60 μl/well.
Four initial dilutions were typically used.
The ^51 Cr-labeled cells (1×10^6 cells at 60 μl/well) were then admixed with the diluted cyclic peptide solutions. The admixtures were maintained at room temperature (about 22° C.) for 30 minutes.
One hundred microliters of each inhibitor peptide/cell admixture were transferred to the substrate-coated wells. This was done in triplicate for each dilution. The resulting plates were incubated for 30 minutes at 37° C. and then washed gently three times with RPMI/1 percent BSA at 200 μl/well. Binding was observed microscopically, particularly after the second wash.
The bound cells were then lysed by the addition of a 0.5 percent solution of sodium dodecylsulfate in water at 100 μl/well. The resulting solutions were then processed for counting and calculation of IC50 values following usual procedures. Appropriate positive and negative controls were used with each plate so that the results of separate assays could be normalized and compared.
The potency data of Table 1 and Table 2 are so normalized. The absolute IC50 value for the peptide of SEQ ID NO:7 is 0.3 μM.

Row | Compound | inhibition of binding to CS-1 (in words)
2 | O=C(O)C[C@@H]1NC(=O)[C@@H](NC(=O)Cc2ccccc2)CSCCNC(=O)[C@H](Cc2ccccc2)NC1=O [.phi.AcCDF-NHCH2 CH2 --] | excellent inhibitors

same assay, conditions: Table 1; normalized IC50 potency relative to standard peptide SEQ ID NO:6 (=1); Jurkat cells, CS-1

Row | Compound | Relative Potency
3 | O=C(O)C[C@@H]1NC(=O)[C@@H](NC(=O)Cc2ccccc2)CSCCNC(=O)[C@H](Cc2ccccc2)NC1=O [.phi.AcCDF-NHCH2 CH2 --] | 25

same assay, conditions: Table 2; normalized IC50 potency relative to standard peptide SEQ ID NO:6; Jurkat cells, CS-1

Row | Compound | Relative Potency
4 | CC1(C)SSC[C@H](NC(=O)Cc2ccccc2)C(=O)N[C@@H](CC(=O)O)C(=O)N[C@@H](Cc2ccccc2)C(=O)N[C@@H]1C(N)=O (PhAc-CDF[Pen]-NH2; disulfide 1-4) | 901
5 | CC(C)C[C@@H]1NC(=O)[C@H](Cc2ccccc2)NC(=O)[C@@H](N)CSSC[C@@H](C(N)=O)NC(=O)[C@H](C(C)O)NC(=O)[C@H](CO)NC(=O)[C@@H]2CCCN2C(=O)[C@H](Cc2ccccc2)NC(=O)[C@H](CC(=O)O)NC1=O (stereo partly drawn) (H-CFLDFPS[Thr(3ξ)]C-NH2; disulfide 1-9) | 81.4
6 | CC(C)C[C@@H]1NC(=O)[C@H](Cc2ccccc2)NC(=O)[C@H](CCC(=O)O)NC(=O)[C@@H](N)CSSC[C@@H](C(N)=O)NC(=O)[C@H](C(C)O)NC(=O)[C@H](CO)NC(=O)[C@@H]2CCCN2C(=O)[C@H](Cc2ccccc2)NC(=O)[C@H](CC(=O)O)NC1=O (stereo partly drawn) (H-CEFLDFPS[Thr(3ξ)]C-NH2; disulfide 1-10) | 9.39
7 | NC(=O)[C@@H]1CSSC[C@H](NC(=O)Cc2ccccc2)C(=O)N[C@@H](CC(=O)O)C(=O)N[C@@H](CC2CCCCC2)C(=O)N1 (PhAc-CD[Cha]C-NH2; disulfide 1-4) | 121
8 | NC(=O)[C@H]1CSSC[C@H](NC(=O)Cc2ccccc2)C(=O)N[C@@H](CC(=O)O)C(=O)N[C@@H](Cc2ccccc2)C(=O)N1 (PhAc-CDF[dC]-NH2; disulfide 1-4) | 358
9 | O=C(O)C[C@@H]1NC(=O)[C@@H](NC(=O)Cc2ccccc2)CSSC[C@H](C(=O)O)NC(=O)[C@H](Cc2ccccc2)NC1=O (PhAc-CDF[dC]-OH; disulfide 1-4) | 202
10 | CC1(C)SSC[C@H](C(N)=O)NC(=O)[C@H](Cc2ccccc2)NC(=O)[C@H](CC(=O)O)NC(=O)[C@H]1NC(=O)Cc1ccccc1 [drawing 36] (PhAc-[Pen]DF[dC]-NH2; disulfide 1-4) | 4.7
11 | NC(=O)[C@@H]1CSSC[C@H](NC(=O)c2ccccc2)C(=O)N[C@@H](CC(=O)O)C(=O)N[C@@H](Cc2ccccc2)C(=O)N1 (Bz-CDFC-NH2; disulfide 1-4) | 23.5
12 | O=C(O)C[C@@H]1NC(=O)[C@@H](NC(=O)Cc2ccccc2)CSCCNC(=O)[C@H](Cc2ccccc2)NC1=O [drawing 29] | 16.1
13 | CCCCOC(=O)[C@@H]1CSSC[C@H](NC(=O)Cc2ccccc2)C(=O)N[C@@H](CC(=O)O)C(=O)N[C@@H](Cc2ccccc2)C(=O)N1 (PhAc-CDFC-X1; disulfide 1-4) | 99.2
14 | CC1(C)SSC[C@@H](C(N)=O)NC(=O)[C@H](Cc2ccccc2)NC(=O)[C@H](CC(=O)O)NC(=O)[C@H]1NC(=O)Cc1ccccc1 [drawing 16] (PhAc-[Pen]DFC-NH2; disulfide 1-4) | 93.9
15 | NC(=O)[C@@H]1CSSC[C@H](NC(=O)Cc2ccccc2)C(=O)N[C@@H](CC(=O)O)C(=O)N[C@@H](Cc2ccccc2)C(=O)N1 [drawing 3] (PhAc-CDFC-NH2; disulfide 1-4) | 954
16 | NC(=O)[C@@H]1CSSC[C@H](NC(=O)Cc2ccccc2)C(=O)N[C@H](CC(=O)O)C(=O)N[C@@H](Cc2ccccc2)C(=O)N1 (PhAc-C[dD]FC-NH2; disulfide 1-4) | 30.7
17 | CCCOC(=O)[C@@H]1CSSC[C@H](NC(=O)Cc2ccccc2)C(=O)N[C@@H](CC(=O)O)C(=O)N[C@@H](Cc2ccccc2)C(=O)N1 (PhAc-CDFC-OPr; disulfide 1-4) | 46.6
18 | CNC(=O)[C@H]1NC(=O)[C@H](Cc2ccccc2)NC(=O)[C@H](CC(=O)O)NC(=O)[C@@H](NC(=O)Cc2ccccc2)CSSC1(C)C (PhAc-CDF[Pen]-NHMe; disulfide 1-4) | 232
19 | NC(=O)[C@@H]1CSSC[C@H](NC(=O)CCc2ccccc2)C(=O)N[C@@H](CC(=O)O)C(=O)N[C@@H](Cc2ccccc2)C(=O)N1 (Hydrocinnamoyl-CDFC-NH2; disulfide 1-4) | 89.8
20 | CC1(C)SSC[C@H](NC(=O)Cc2ccccc2)C(=O)N[C@@H](CC(=O)O)C(=O)N[C@@H](CC2CCCCC2)C(=O)N[C@H]1C(N)=O (PhAc-CD[Cha][dPen]-NH2; disulfide 1-4) | 98.9
21 | CN1C(=O)[C@H](CC(=O)O)NC(=O)[C@@H](NC(=O)Cc2ccccc2)CSSC[C@@H](C(N)=O)NC(=O)[C@@H]1Cc1ccccc1 (PhAc-CD[NMeF]C-NH2; disulfide 1-4) | 0
22 | COC(=O)[C@@H]1CSSC[C@H](NC(=O)Cc2ccccc2)C(=O)N[C@@H](CC(=O)O)C(=O)N[C@@H](Cc2ccccc2)C(=O)N1 (PhAc-CDFC-OMe; disulfide 1-4) | 1190
23 | O=C(O)C[C@@H]1NC(=O)[C@@H](NC(=O)Cc2ccccc2)CSSC[C@@H](CO)NC(=O)[C@H](Cc2ccccc2)NC1=O | 84.5
24 | NC(=O)C[C@@H]1NC(=O)[C@H](CC(=O)O)NC(=O)[C@@H](NC(=O)Cc2ccccc2)CSSC[C@@H](C(N)=O)NC1=O (PhAc-CDNC-NH2; disulfide 1-4) | 18.2
25 | O=C(O)C[C@@H]1NC(=O)[C@@H](NC(=O)Cc2ccccc2)CSSC[C@@H](C(=O)O)NC(=O)[C@H](Cc2ccccc2)NC1=O (PhAc-CDFC-OH; disulfide 1-4) | 501

same assay, conditions: times/fold more potent than SEQ ID NO:6

Row | Compound | Potency in inhibiting Jurkat cell binding to CS-1 relative to standard 10-mer of SEQ ID NO:6
26 | CC(C)C[C@H](NC(=O)Cc1ccccc1)C(=O)N[C@@H](CC(=O)O)C(=O)N[C@@H](CO)C(=O)N1CCC[C@@H]1C(N)=O [XLDSP, .phi.Ac-LeuAspSer-D-Pro-, reference compound] (PhAc-LDS[dP]-NH2) | about 17

target: T1, VLA-4/sVCAM-1 (Homo sapiens, UniProt P05556+P13612); assay: In vitro binding assay: Jurkat cells to solid phase-bound sVCAM-1; type: cell-based; conditions: not given
T1 construct: host or cells: Jurkat cells carry the VLA-4; The sVCAM-1 partner was made in house in transfected human embryonal kidney 293 cells (ATCC CRL 1573)
T1 sequence (P13612 34-1032): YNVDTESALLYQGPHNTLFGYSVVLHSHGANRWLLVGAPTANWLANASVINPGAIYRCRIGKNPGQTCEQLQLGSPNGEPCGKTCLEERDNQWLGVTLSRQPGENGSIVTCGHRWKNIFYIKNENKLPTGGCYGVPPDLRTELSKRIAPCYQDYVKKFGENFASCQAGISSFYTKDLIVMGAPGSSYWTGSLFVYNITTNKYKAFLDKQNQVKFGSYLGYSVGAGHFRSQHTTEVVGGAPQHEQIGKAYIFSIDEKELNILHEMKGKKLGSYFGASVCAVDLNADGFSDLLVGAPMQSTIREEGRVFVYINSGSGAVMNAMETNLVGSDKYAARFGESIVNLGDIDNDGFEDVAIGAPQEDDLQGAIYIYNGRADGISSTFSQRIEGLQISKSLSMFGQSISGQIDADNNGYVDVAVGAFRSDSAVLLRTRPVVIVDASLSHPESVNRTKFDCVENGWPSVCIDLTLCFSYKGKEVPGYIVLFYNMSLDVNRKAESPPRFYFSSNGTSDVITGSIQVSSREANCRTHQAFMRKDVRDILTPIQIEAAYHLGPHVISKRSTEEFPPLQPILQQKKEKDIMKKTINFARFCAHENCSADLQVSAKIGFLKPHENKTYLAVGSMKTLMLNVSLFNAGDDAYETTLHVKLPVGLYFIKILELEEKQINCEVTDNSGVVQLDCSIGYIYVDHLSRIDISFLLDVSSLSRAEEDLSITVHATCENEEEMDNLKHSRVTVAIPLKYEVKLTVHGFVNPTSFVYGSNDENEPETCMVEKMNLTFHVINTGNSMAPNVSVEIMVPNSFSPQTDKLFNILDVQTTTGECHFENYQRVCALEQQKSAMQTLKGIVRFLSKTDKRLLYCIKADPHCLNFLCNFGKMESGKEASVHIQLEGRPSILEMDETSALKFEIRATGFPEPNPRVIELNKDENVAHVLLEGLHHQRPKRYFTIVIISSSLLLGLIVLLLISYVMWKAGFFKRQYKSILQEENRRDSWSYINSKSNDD
T1 sequence (P05556 21-798): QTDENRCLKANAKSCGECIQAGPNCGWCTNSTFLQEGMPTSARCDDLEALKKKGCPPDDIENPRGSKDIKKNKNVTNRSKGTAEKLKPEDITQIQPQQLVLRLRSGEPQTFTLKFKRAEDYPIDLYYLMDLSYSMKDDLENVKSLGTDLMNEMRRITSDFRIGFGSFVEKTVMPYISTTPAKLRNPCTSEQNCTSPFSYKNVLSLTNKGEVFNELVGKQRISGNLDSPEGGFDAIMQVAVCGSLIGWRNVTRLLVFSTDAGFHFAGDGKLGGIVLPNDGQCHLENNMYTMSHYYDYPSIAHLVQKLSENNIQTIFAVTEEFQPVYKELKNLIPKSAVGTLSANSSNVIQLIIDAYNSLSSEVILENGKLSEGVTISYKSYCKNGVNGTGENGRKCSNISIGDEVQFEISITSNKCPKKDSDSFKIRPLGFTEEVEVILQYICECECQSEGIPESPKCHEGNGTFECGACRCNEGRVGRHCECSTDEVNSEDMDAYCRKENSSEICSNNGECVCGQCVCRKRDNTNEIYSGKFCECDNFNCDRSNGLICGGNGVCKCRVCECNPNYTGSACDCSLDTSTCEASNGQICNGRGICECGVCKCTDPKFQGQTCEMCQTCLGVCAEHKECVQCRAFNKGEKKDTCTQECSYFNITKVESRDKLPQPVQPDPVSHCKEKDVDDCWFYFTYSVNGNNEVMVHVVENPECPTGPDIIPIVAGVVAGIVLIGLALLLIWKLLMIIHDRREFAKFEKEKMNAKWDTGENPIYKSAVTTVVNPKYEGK
Experimental: Assays conducted using sVCAM-1 as solid phase-bound antigen were carried out substantially identically to those using CS-1. The sVCAM-1 polypeptide used had the same amino acid residue sequence as the materials described in Lobb et al., Biochem. Biophys. Res. Commun., 178:1498-1504 (1991) and Cybulsky et al., Proc. Natl. Acad. Sci., USA, 88:7859-7863 (1991). Human embryonal kidney line 293 (ATCC CRL 1573) cells were co-transfected with a plasmid (pCDNAI;invitrogen) containing the sVCAM-1 DNA sequence and plasmid pSV2-neo [Southern et al., J. Mol. Appl. Gen., 1:327-341 ([…])]. Cells were selected in DMEM, 10 percent fetal bovine serum and 600 μg/ml Geneticin. sVCAM-1 was purified from supernatants using a column containing monoclonal antibody P3H12 (anti-human VCAM-1) coupled to Sepharose 4B. The sVCAM-1 was eluted using 0.1M glycine at pH 2.5 following 50 column washes with PBS, pH 7.2. The eluate was immediately neutralized and dialyzed against PBS for use.

Row | Compound | inhibition of binding between solid phase-bound sVCAM-1 and Jurkat cells (in words)
27 | CC(C)C[C@H](NC(=O)Cc1ccccc1)C(=O)N[C@@H](CC(=O)O)C(=O)N[C@@H](CO)C(=O)N1CCC[C@@H]1C(N)=O [XLDSP, .phi.Ac-LeuAspSer-D-Pro-, reference compound] (PhAc-LDS[dP]-NH2) | no inhibition
